About 2,200 (0.71%) of roughly 310,000 compounds showed an effect of 50% or more. The effect is printed as a negative number. Some of the results follow.

Sequence of human ether-à-go-go-related gene (hERG) potassium channel (Q12809 whole entry, looked up): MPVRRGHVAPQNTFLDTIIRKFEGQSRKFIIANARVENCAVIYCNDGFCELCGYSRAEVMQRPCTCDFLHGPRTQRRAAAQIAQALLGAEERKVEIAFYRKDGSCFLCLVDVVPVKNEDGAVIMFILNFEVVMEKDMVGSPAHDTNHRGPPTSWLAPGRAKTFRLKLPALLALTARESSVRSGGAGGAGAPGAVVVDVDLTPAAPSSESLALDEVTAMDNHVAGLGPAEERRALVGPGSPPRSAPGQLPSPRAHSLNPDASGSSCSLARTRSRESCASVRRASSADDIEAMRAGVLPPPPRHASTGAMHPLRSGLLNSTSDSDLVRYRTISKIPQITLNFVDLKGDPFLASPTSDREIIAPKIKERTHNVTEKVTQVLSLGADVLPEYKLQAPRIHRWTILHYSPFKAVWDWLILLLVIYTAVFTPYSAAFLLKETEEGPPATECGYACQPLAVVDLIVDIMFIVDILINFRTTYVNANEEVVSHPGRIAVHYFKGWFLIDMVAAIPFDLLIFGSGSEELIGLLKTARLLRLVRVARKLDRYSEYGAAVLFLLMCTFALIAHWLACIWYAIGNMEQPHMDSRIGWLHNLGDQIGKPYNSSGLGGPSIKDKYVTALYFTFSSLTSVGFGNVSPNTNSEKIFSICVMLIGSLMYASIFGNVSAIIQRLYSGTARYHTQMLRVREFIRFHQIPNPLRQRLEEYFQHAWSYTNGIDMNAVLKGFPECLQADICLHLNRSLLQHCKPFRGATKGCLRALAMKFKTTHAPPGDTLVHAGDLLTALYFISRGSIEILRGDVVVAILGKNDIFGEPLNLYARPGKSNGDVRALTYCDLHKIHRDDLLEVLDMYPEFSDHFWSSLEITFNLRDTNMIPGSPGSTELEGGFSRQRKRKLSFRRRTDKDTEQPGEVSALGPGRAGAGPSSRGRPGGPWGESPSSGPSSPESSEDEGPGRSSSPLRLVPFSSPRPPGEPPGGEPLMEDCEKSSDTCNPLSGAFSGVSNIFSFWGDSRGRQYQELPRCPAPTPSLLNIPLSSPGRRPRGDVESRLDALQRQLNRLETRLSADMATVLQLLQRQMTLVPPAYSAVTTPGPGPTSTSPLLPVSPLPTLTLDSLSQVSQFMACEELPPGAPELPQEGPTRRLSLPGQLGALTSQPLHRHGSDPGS

This assay addresses human ether-à-go-go-related gene (hERG) potassium channel (human, UniProt Q12809). The experiment in a line: primary screen, population patch clamp on CHO cells stably expressing hERG.
With `COc1ccccc1NC(=O)c1ccc2nc(C)sc2c1`, the “hERG current change (%, negative = inhibition) at 1uM” value was 8.56%.
In the case of `Cc1cc(N2CCCCC2)nc2ccccc12` it was -3.55%; in that of `O=C(c1ccccc1)c1coc2ccc(O)c(Cl)c12`, -4.28%.
As to `COc1ccccc1-c1nnc(SCC(=O)O)n1-c1ccccc1`, the “hERG current change (%, negative = inhibition) at 1uM” value is recorded as 5.66%.
As for `Cc1cc(NCCOCCO)n2c(nc3ccccc32)c1C#N`, the figure is 7.03%.
As for `CSc1ccccc1-n1nnnc1SCc1ccccc1`, the figure is -17.1%; as for `CCc1ccc(OCc2nnc(SCC(=O)NC3CCCCC3)o2)cc1`, 14.6%; as for `COc1ccccc1CNC(=O)c1ccc(-c2ccccc2C(F)(F)F)o1`, 9.9%.
Regarding `CC(C)Cc1ccccc1S(N)(=O)=O`, the “hERG current change (%, negative = inhibition) at 1uM” value was determined as 10.3%.
As for `Cc1cc2ncc(-c3ccc(Cl)cc3)c(N)n2n1`, the figure is -2.52%.
In the case of `COc1ccc(N(CC(=O)NCc2ccc(F)cc2)C(=O)c2snc(C(N)=O)c2N)cc1OC` it was 14.2%.
In the case of `Cc1cccc(N2CCN(C(=O)CCC(=O)N3Cc4ccccc4Oc4ncccc43)CC2)c1C` it was 9.18%; in that of `Cc1oc2cc3oc(=O)ccc3cc2c1C`, 11.6%; in that of `COCC(=O)Nc1ccc(C(N)=O)cc1`, -3.76%.
As for `Cc1ccc(C)c(NC(=O)CSc2nc3c(c(=O)n2C)SC(C)C3)c1` (stereo not shown), the “hERG current change (%, negative = inhibition) at 1uM” value was determined as 12%.
As for `O=Cc1cn(-c2ccccc2)nc1-c1cc2cc(O)ccc2oc1=O`, the figure is 12%; as for `O=C(N/N=C/c1ccc2c(c1)OCO2)c1sc2cccc(Cl)c2c1Cl`, 5.71%; as for `COc1ccc2nc(C)cc(Nc3ccccc3O)c2c1.Cl`, 5.58%.
As for `O=C(COc1ccc(S(=O)(=O)N2CCOCC2)cc1)Nc1ccccc1Cl`, the figure is 7.64%; as for `COc1ccc(CC(=O)Nc2cc(=O)n(C)c(=O)n2C)cc1OC`, 15.5%.
As for `COC(=O)c1cc(NS(=O)(=O)c2ccc(NC(C)=O)cc2)cc(C(=O)OC)c1`, the figure is 2.46%; as for `Cc1cc(=O)oc2c(C)c(OC(C)C(=O)NC3CCN(Cc4ccccc4)CC3)ccc12` (stereo not shown), -2.18%; as for `CCOc1ccc2c(c1)sc(N)[n+]2Cc1cc(C)cc2cccnc12.[Br-]`, -56.2%.
Regarding `CCN(CC)CCNC(=O)Cn1c(=O)c2cccn2c2ccc(F)cc21`, the “hERG current change (%, negative = inhibition) at 1uM” value came to 12.5%.
For `CC(/C=N/NC(=O)COc1ccccc1C)=N\NC(=O)COc1ccccc1C`, the “hERG current change (%, negative = inhibition) at 1uM” value was 24.2%.
In the case of `CCOc1ccc(NC(=O)C2C3C=CC4(O3)C2C(=O)N(Cc2cccnc2)C4C(=O)NC2CCCCC2)cc1` (stereo not shown) it was 11.9%.
With `CC1(C)SC(=S)N(/N=C/c2ccccc2)C1N(O)C(=O)Nc1ccc([N+](=O)[O-])cc1` (stereo not shown), the “hERG current change (%, negative = inhibition) at 1uM” value was 11.6%.
As to `CCc1cccc(NC(=O)C2CCCN2C(=O)Nc2ccc(C)cc2)c1` (stereo not shown), the “hERG current change (%, negative = inhibition) at 1uM” value came out at 11.1%.
For `COc1ccc(C(CNC(=O)c2cc3c(s2)CCCC3)N2CCOCC2)cc1` (stereo not shown), the “hERG current change (%, negative = inhibition) at 1uM” value is given as 1.79%.
Turning to `Cc1cccc(C)c1C(OCCN(C)C)C1CCCCC1.O=C(O)C(=O)O` (stereo not shown), the “hERG current change (%, negative = inhibition) at 1uM” value is on record as 2.2%.
As to `CCOC(=O)c1cccc(NC(=S)NC(=O)c2cccnc2)c1`, the “hERG current change (%, negative = inhibition) at 1uM” value was determined as 9.06%.
As for `CC1(C)Oc2ccc(C(=O)N3CCCC3)cc2N(CC(=O)NCc2ccccc2)C1=O`, the “hERG current change (%, negative = inhibition) at 1uM” value is on record as 2.22%.
As for `COc1ccc(-c2csc3nc(-c4ccccc4OC)oc(=O)c23)cc1`, the figure is 0.113%; as for `Cc1ccc(S(=O)(=O)N(C)C)cc1NC(=O)COC(=O)Cc1cccs1`, -40.1%; as for `Cc1ccn2cc(C34CC5CC(CC(C5)C3)C4)nc2c1`, -5.66%.
In the case of `CCc1ccc(-n2c(C)cc(/C=N/NC(=O)OC)c2C)cc1` it was 12.1%; in that of `CC(C)CN1CCN(Cc2nc(C(C)C)cs2)CC1CCO` (stereo not shown), 5.5%.
In the case of `O=C(CC1(CC2=NS(=O)(=O)c3ccccc3N2)CCCC1)NCCc1ccccc1` it was -0.58%; in that of `CC1Cc2ccccc2N1C(=O)CSc1nnc(N)s1` (stereo not shown), 12.2%.
With `N#C/C(=C/c1cn(-c2ccccc2)nc1-c1cccc(OCc2ccccc2)c1)C(=O)NCCCn1ccnc1`, the “hERG current change (%, negative = inhibition) at 1uM” value stood at 3.73%.
Take `COc1ccc2[nH]c(=O)c(C(c3nnnn3C(C)(C)C)N(Cc3ccco3)CC3CCCO3)cc2c1` (stereo not shown): the “hERG current change (%, negative = inhibition) at 1uM” value is on record as 0.906%.
In the case of `COc1ccc(Cc2nnc(SCC(=O)Nc3c(C)cccc3C)[nH]c2=O)cc1` it was 8.89%.
As for `CCN(CC)CC(=O)Nc1sc(C)cc1C(=O)c1ccccc1`, the figure is 7.2%; as for `CN(c1ccc([N+](=O)[O-])cc1/C=N/NC(=O)COc1ccccc1)C1CCCCC1`, 4.96%.
In the case of `O=C(COc1ccccc1)Nc1ncccn1` it was 0.695%; in that of `CCOC(=O)C1(CCOc2ccccc2)CCN(Cc2cccc(O)c2)CC1`, -28.7%.
As for `CC1CC(=O)N(CC(=O)Nc2ccccc2F)c2ccccc2S1(=O)=O` (stereo not shown), the “hERG current change (%, negative = inhibition) at 1uM” value is 9.74%.
Consider `CCOc1ccc(CC(=O)OCN2C(=O)c3ccccc3C2=O)cc1`, for which the “hERG current change (%, negative = inhibition) at 1uM” value came out at 8.38%.
Regarding `COc1ccc(/C=N/N(CCC(=O)NC(C)(C)C)C2=NS(=O)(=O)c3ccccc32)cc1`, the “hERG current change (%, negative = inhibition) at 1uM” value came out at 3.93%.
Take `COc1ccc2ccccc2c1-c1csc(N)n1`: the “hERG current change (%, negative = inhibition) at 1uM” value is 18.3%.
In the case of `COc1cccc(NC(=O)c2ccc3c(c2)OCO3)c1` it was 15.3%.
As for `COc1ccc(CN(C)C(=O)c2cc(S(=O)(=O)N3CCOCC3)ccc2N2CCCC2)cc1`, the figure is -9.69%; as for `COc1ccc(C(C(=O)NC2CCCC2)N(C(=O)c2snc(-c3ccc(F)cc3)c2N)c2ccc(F)cc2)cc1` (stereo not shown), 6.52%.
For the molecule `CCOc1cc(C)nc(N2CCCC(C(=O)NCc3ccccc3F)C2)n1` (stereo not shown), the “hERG current change (%, negative = inhibition) at 1uM” value is 6.07%.
In the case of `CCN1CCN(S(=O)(=O)c2ccc(C)c([N+](=O)[O-])c2)CC1` it was 5.83%; in that of `CC(=O)c1cccc(NC(=O)C2CCCN2S(=O)(=O)c2cccc3nsnc23)c1` (stereo not shown), 5.22%.
Take `Br.COc1ccc(C2CC(c3cccs3)=NN2c2nc(-c3ccccc3)cs2)cc1OC` (stereo not shown): the “hERG current change (%, negative = inhibition) at 1uM” value is given as 8.96%.
In the case of `C=CCNC(=O)c1cccc(C(F)(F)F)c1` it was 17.6%.
In the case of `O=C(CC(Cc1ccccc1)C(=O)O)Nc1ccccc1` (stereo not shown) it was 20.6%; in that of `Cn1c(=O)c2c(nc(NCc3ccc4c(c3)OCO4)n2Cc2ccccc2Cl)n(C)c1=O`, 5.55%.
For `CCCCC(=NCCc1c(C)[nH]c2ccccc12)C1=C(O)CC(c2ccccc2)CC1=O` (stereo not shown), the “hERG current change (%, negative = inhibition) at 1uM” value came out at 7.1%.
In the case of `O=C(c1ccc(F)cc1)C1CCN(S(=O)(=O)c2ccccc2)CC1` it was 5.11%; in that of `COc1cc(NC(=O)CCc2nnc3ccc(N4CCN(c5cccc(OC)c5)CC4)nn23)cc(OC)c1`, 18%; in that of `O=C(NCc1cccnc1)C1CC(c2ccccc2O)=NO1` (stereo not shown), 10.3%.
As for `Cc1ccc(O)c(C(CC(=O)NC2CCCCC2)c2ccccc2)c1` (stereo not shown), the figure is 14.6%; as for `O=C(Cn1cnc([N+](=O)[O-])c1)c1ccc(Cl)cc1`, 5.05%; as for `O=C(N/N=C\c1ccc(Br)o1)C1COc2ccccc2O1` (stereo not shown), 4.24%.
As for `CCc1nc(N2CCN(C(C)=O)CC2)c(C#N)c2c1COC(C)(C)C2`, the figure is 13.4%.
As for `COc1cccc(-n2nc(-c3ccnn3-c3cccc(Cl)c3)c(=O)n(C)c2=O)c1`, the “hERG current change (%, negative = inhibition) at 1uM” value was 5.93%.
Turning to `CCC(Sc1nc(C)cc(C)n1)C(=O)Nc1ccc(S(N)(=O)=O)cc1` (stereo not shown), the “hERG current change (%, negative = inhibition) at 1uM” value turned out to be 6.73%.
As for `Cc1ccc(NC(=O)Cc2ccc([N+](=O)[O-])cc2)c(Br)c1`, the figure is 5.32%.
In the case of `O=C(NCCCN1CCOCC1)c1cc(-c2ccccc2)nc2ccccc12` it was 1.74%; in that of `COc1ccc(/C=C/c2c([N+](=O)[O-])c(=O)n(C)c(=O)n2C)cc1`, 2.78%.
As for `C/C=C/c1ccc(OCCNCc2ccccc2)c(OC)c1.O=C(O)C(=O)O`, the figure is 4.38%; as for `C=CCNC(=O)CSc1nnc(-c2ccccn2)n1Cc1ccccc1`, 15.1%; as for `CCc1ccc(C(=O)NN(C(=O)c2ccc(CC)cc2)C(C)(C)C)cc1`, 6.61%.
Turning to `O=C1c2cccnc2C(=O)N1c1ccccc1-c1ccccc1`, the “hERG current change (%, negative = inhibition) at 1uM” value is 18.6%.
Regarding `Cc1cc(C)n2nc(SCCC(=O)NCCc3ccccc3)nc2n1`, the “hERG current change (%, negative = inhibition) at 1uM” value was -8.94%.
As for `COC(=O)CCC(=O)NNC(=O)c1cccc(Br)c1`, the figure is 1.75%; as for `CCNS(=O)(=O)c1ccc(CCC(=O)N2CCN(c3ccccc3)CC2)cc1`, 3.97%; as for `O=C(NC(=S)Nc1cc(Cl)ccc1O)c1cccc(Br)c1`, 9.43%.
As for `CC1c2cccn2CCN1S(=O)(=O)c1ccccc1` (stereo not shown), the figure is 14.6%; as for `CC(NC(=O)CN(C)S(=O)(=O)c1ccc(Br)s1)c1ccccc1` (stereo not shown), 14.9%; as for `O=C(/C=C/c1ccccc1)NC(NC(=S)Nc1ccc(Cl)cc1)C(Cl)(Cl)Cl` (stereo not shown), 14.2%.
In the case of `O=c1cc(-c2ccccc2)nc2nc[nH]n12` it was 10.3%; in that of `Cc1ccc(OCCNC(=O)c2ccccc2O)cc1`, 16.2%; in that of `O=C(NCc1ccco1)c1cnn2c(C(F)(F)F)cc(-c3ccco3)nc12`, 3.32%.
`O=C(CN1CCN(Cc2ccccc2)CC1)N/N=C/c1cccnc1`: the “hERG current change (%, negative = inhibition) at 1uM” value was found to be 1.56%.

These data come from article PMC4336329 (PLoS ONE, 2015).
